Reference: paper PMC9917060
Results are given in words; binding and its absence hold for the method and conditions named. In cells and extracts the contact can be indirect. Some binding calls cover weakened binding; strength is not graded here. Sequences can lack the tags named with a protein. One block for each binder: values may come before it.

Columns and labels:
[1] = biological target: T1, p-MBP-Plk4-TE (self-phosphorylated, constitutively active Drosophila Plk4) (Drosophila melanogaster) (UniProt O97143); test: pull-down; MBP-Plk4-TE, phosphorylated or dephosphorylated, immobilized on amylose resin and incubated with 35S-labelled IVTT products; SDS-PAGE and autoradiography; only the target purified
T1 sequence (chain, self-phosphorylated (auto-phosphorylation in bacteria; sites not named)): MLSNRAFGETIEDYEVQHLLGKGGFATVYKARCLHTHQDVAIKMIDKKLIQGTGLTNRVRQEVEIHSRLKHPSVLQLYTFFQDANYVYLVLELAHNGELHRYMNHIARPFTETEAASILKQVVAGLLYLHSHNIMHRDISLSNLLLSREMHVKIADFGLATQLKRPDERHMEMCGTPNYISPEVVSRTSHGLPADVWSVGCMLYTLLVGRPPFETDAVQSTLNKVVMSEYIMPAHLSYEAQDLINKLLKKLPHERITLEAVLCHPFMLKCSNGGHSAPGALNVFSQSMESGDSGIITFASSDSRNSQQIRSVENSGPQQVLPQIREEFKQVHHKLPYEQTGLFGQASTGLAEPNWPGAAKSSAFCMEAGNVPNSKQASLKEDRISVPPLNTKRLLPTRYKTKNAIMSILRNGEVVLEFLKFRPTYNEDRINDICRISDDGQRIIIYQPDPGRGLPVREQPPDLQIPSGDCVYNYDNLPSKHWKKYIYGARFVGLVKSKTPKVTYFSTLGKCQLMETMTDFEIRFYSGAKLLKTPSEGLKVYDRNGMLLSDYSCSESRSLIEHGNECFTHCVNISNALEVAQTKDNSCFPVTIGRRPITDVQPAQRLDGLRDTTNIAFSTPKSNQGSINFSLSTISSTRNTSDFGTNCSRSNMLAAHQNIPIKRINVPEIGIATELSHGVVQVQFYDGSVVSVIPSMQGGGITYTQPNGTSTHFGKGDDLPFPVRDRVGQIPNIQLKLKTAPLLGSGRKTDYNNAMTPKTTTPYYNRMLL

[2] = biological target: T2, dephosphorylated MBP-Plk4-TE (Drosophila melanogaster) (UniProt O97143); test: as above
T2 sequence: T1 sequence (chain, self-phosphorylated (auto-phosphorylation in bacteria; sites not named))

[3] = biological target: T3, GFP-HsPP5 (human PP5) (human) (UniProt P53041); test: co-IP; GFP-Trap magnetic agarose beads on lysates of transiently co-transfected HEK293 cells in EB buffer, 4 °C, 90 min; blots with anti-FlagM2 and anti-GFP
T3 sequence: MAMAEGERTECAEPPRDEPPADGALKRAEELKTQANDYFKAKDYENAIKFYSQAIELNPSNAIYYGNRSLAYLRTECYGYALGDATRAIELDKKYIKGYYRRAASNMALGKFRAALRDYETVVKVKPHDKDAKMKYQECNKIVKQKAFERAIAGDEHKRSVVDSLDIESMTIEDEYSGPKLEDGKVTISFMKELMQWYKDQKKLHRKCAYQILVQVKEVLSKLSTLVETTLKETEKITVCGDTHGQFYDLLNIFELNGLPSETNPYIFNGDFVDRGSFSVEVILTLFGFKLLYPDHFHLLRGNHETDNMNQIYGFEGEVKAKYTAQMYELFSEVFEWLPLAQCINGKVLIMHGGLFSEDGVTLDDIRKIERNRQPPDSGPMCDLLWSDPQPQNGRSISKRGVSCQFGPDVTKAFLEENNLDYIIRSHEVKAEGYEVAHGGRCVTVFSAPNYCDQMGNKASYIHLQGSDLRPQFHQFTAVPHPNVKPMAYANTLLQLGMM

B3: Flag-HsPlk4-ND (non-degradable human Plk4) (enzyme, UniProt O00444 1-970)
chain: MATCIGEKIEDFKVGNLLGKGSFAGVYRAESIHTGLEVAIKMIDKKAMYKAGMVQRVQNEVKIHCQLKHPSILELYNYFEDSNYVYLVLEMCHNGEMNRYLKNRVKPFSENEARHFMHQIITGMLYLHSHGILHRDLTLSNLLLTRNMNIKIADFGLATQLKMPHEKHYTLCGTPNYISPEIATRSAHGLESDVWSLGCMFYTLLIGRPPFDTDTVKNTLNKVVLADYEMPSFLSIEAKDLIHQLLRRNPADRLSLSSVLDHPFMSRNSSTKSKDLGTVEDSIDAGHAAISTAITASSSTSISGSLFDKRRLLIGQPLPNKMTVFPKNKSSTDFSSSGDGNSFYTQWGNQETSNSGRGRVIQDAEERPHSRYLRRAYSSDRSGTSNSQSQAKTYTMERCHSAEMLSVSKRSGGGENEERYSPTDNNANIFNFFKEKTSSSSGSFERPDNNQALSNHLCPGKTPFPFADPTPQTETVQQWFGNLQINAHLRKTTEYDSISPNRDFQGHPDLQKDTSKNAWTDTKVKKNSDASDNAHSVKQQNTMKYMTALHSKPEIIQQECVFGSDPLSEQSKTRGMEPPWGYQNRTLRSITSPLVAHRLKPIRQKTKKAVVSILDSEEVCVELVKEYASQEYVKEVLQISSDGNTITIYYPNGGRGFPLADRPPSPTDNISRYSFDNLPEKYWRKYQYASRFVQLVRSKSPKITYFTRYAKCILMENSPGADFEVWFYDGVKIHKTEDFIQVIEKTGKSYTLKSESEVNSLKEEIKMYMDHANEGHRICLALESIISEEERKTRSAPFFPIIIGRKPGSTSSPKALSPPPSVDSNYPTRERASFNRMVMHSAASPTQAPILNPSMVTNEGLGLTTTASGTDISSNSLKDCLPKSAQLLKSVFVKNVGWATQLTSGAVWVQFNDGSQLVVQAGVSSISYTSPNGQTTRYGENEKLPDYIKQKLQCLSSILLMFSNPTPNFH
binding [3]: binds

B4: ^35S-Ana2 (protein, UniProt Q9XZ31 1-420)
chain: MFVPETEDMLPRLAPRPSAAVPMGHTNEIIGPTVPEVSILFGQPPQDPQMQPQQPNHAHQESSPRAAPTFASWKKQMLPRVNFSPILATELGPRTAPSSNSPCSSKEYQVMPRDRNYASDAQQTTNHMNCNAGGYNAEPKQQAYQSRRLSSSSNADVLTICAGTQTDPFNPSPPRKSLPQVVYSDIDVSNLANKSDLAALVSLVESVRHEQQQLRNLCEMILEQQQRAKPEAISKASSTTGTQCDILTTNQAGRRLSPIMQDYIAEEEEPLPPPQARVIPQFPSPRPHPPIAQSTGYRANTPQAKRIPQLAKPNTEKSMVMNELALKYLRQPVDELMKDMRLGASPKSPNPEPLRPIDNIGHAQSPNDISNASYKYLKKYRLLPEEQLEPVCPQSPMAATAPSPHIQLDLENIRNQPKLL
modifications: 35S-methionine-labelled
binding [1]: no binding
binding [2]: no binding

Second part, the binder after the results:

binding [1]: no binding
binding [2]: no binding
B1: ^35S-Sas6 (protein, UniProt Q9VAC8 1-472)
chain: MWPPGSEDSYSAKMDYGKSVVNILPSVEMLVNFNGEMTRSSKRSCLLYAERVDFKELLQLRLTEKSDQRRMYITTVDSASFQDLKQDQSLNVSFSGFIDNVVRMLKDCQSGKLELHLTTRDQNLSSGREVHDYYLQFVEIRSFKNLVHLSLPCRSAPLNTVLFYINSMLEASHKKQYILEQSMQQMQAEINAQRAHAERLTTENTNIREALAENTRILEEKHAAEVHQYQEKLSKINEQRSNELERNRRAISGFQAQLDKASLEKAELKSAQEQAEKRCQTLSEELSCCKARVCTLKEQNDKLHGDVANIRKHERKLEYKIEDLKQHTVELQEHIQKGNKEKANIAAELEAEKKILHTKRQALEMASEEISKANQIIVKQSQELLNLKKTIAWRTEVALQQEKAVQAKESLLSLRENELREARITIEKLREEIPQQLQSMRNFAQGLEQKYSKQILILKERLAIPTGKENRR
modifications: 35S-methionine-labelled

binding [2]: binds
B2: ^35S-Sas4 (protein, UniProt Q9VI72 1-901)
chain: MQEAGESPVGMPLSQEAIAQRLAALSRWQDEQKRLLQERQSNHRVLLGLEQRNMYKMLGLLHQETESHENSVLEEWDEEHSIQMPRLAADPDEHEPEISMADPQPAKPKRPFLRRGEGLKQRFKINPDQLRLENLPRYKFANAHPQFRTPQMKKGILKKQVKSPPNPAPPPAPKPSAQLDDLNEQRFQQMLIGKNACSSTPDLKSSYASSTTASSTSPRVRFVEQKSRAGQTTHADDEASSEASPMTGVCWAKVLDTQSIKPAQIQRRSAQIRVEDDSNVSIFELLEQKATEGNIDMNSSCIRTFMARKDQRRRVADDSDHIVVTQQVRQMRLQPQVDQMLVQELQEGDEEDTEPSSDQTLTMTPIQVGNTKVRVRFSDSNDTHEYSDATSLNDGSNIQLFEQFKSALFQALEQKKKSSPSKESDEPITKDLQEKANLVRTRLEELETEIATFKEQNAQLLRLRQQHELEKAKCTQDHMEAMERVHDEKIQAEIYLHDERMKIEEERRKFEQQMRLQKSNANSKEKKEIAALKQEVEGLQLQLKQKEQAHVSAQARLRAQLRASEKEQRNYRDEIELLRKENKRLEQELVKIGRENNSKMLQEINRNIARLAPKVLPSATMSDILDENGRRTQSLDGTAGKPAKQREAQNRRQSSGSAQVRSRSRSLSRNKKTPYALDESYASSSSVESEEVQPPVTAPKAATPPPAANSSSDFKREITNADGSKDIWYPNGNLKKISADGMNLRMLYFNKDIKETNIREGTVKYYYAETNTWHTSYLDGLEILEFPNGQTEHRRKDGTVEIHFPNNSIKIVDPSDTEKLEEWRYADGTHLVQLRNGDKILNLPNGQKEIHTKLNKRREYPDGTVKLVYPDGSQETRYSNGRVRLKDKDGKLIMDTDYAKY
modifications: 35S-methionine-labelled
